# Source: article PMC2811152
# Sequences of proteins named here, by UniProt entry; tags and fusion partners are left off. A change or cut given only in a name is not applied to a line headed by its entry.
# UniProt P35222: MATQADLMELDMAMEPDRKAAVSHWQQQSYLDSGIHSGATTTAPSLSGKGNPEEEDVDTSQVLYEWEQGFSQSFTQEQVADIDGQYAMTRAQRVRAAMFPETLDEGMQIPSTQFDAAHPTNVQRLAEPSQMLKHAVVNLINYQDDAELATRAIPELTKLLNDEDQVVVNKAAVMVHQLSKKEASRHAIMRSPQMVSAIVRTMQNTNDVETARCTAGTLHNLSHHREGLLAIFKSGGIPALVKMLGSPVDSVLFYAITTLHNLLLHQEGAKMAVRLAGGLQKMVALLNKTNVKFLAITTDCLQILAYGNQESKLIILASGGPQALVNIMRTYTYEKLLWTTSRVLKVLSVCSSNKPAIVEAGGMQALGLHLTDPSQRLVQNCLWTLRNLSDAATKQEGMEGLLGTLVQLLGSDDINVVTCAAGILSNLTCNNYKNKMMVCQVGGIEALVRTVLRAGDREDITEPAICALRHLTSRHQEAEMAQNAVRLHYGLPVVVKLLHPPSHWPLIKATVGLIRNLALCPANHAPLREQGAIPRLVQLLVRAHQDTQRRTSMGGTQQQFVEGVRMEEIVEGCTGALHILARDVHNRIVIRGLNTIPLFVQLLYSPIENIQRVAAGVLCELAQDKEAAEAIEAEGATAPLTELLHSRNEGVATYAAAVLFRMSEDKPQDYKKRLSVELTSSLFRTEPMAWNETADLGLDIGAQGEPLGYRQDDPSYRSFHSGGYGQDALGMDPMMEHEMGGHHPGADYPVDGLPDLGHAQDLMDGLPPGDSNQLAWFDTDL
# UniProt P36402: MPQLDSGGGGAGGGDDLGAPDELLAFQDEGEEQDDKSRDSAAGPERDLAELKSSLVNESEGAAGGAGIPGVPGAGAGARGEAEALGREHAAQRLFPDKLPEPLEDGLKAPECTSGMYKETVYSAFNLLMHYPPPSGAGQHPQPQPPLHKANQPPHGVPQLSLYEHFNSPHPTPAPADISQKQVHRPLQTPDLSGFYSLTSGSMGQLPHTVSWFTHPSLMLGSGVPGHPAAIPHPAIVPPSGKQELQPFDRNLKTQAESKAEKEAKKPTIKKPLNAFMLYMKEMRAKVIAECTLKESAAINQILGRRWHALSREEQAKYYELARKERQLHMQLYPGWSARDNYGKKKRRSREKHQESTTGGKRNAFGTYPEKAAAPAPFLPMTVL
# UniProt Q9NQB0: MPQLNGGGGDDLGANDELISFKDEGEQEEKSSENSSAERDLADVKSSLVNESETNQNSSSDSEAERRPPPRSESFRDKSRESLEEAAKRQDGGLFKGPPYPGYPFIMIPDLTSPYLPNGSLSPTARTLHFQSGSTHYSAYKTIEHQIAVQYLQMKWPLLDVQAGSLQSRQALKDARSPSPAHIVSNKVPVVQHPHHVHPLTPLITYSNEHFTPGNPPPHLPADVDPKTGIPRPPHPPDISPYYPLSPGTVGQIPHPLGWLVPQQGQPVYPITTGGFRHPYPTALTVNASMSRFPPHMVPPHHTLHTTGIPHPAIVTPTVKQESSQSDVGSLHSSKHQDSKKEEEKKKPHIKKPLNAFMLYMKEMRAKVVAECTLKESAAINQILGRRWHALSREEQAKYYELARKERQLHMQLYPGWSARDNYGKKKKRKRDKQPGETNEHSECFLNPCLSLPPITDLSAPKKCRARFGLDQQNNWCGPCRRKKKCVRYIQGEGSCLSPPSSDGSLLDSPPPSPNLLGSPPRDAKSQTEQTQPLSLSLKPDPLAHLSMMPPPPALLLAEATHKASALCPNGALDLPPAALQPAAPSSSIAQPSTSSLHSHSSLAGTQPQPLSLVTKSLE
# No constants are given. Whether binding was seen depends on the method and setting. For some assays here: Binding seen in cells or lysates may run through a third protein. Some entries that bind do so weakly or less than the wild type. For some assays here: Tags and fused reporters may be left off the sequences shown.
# T1: special AT-rich binding protein 1 (SATB1), endogenous (human (endogenous in Jurkat, human thymocytes, HEK 293T)) (UniProt Q01826)
# T1 sequence: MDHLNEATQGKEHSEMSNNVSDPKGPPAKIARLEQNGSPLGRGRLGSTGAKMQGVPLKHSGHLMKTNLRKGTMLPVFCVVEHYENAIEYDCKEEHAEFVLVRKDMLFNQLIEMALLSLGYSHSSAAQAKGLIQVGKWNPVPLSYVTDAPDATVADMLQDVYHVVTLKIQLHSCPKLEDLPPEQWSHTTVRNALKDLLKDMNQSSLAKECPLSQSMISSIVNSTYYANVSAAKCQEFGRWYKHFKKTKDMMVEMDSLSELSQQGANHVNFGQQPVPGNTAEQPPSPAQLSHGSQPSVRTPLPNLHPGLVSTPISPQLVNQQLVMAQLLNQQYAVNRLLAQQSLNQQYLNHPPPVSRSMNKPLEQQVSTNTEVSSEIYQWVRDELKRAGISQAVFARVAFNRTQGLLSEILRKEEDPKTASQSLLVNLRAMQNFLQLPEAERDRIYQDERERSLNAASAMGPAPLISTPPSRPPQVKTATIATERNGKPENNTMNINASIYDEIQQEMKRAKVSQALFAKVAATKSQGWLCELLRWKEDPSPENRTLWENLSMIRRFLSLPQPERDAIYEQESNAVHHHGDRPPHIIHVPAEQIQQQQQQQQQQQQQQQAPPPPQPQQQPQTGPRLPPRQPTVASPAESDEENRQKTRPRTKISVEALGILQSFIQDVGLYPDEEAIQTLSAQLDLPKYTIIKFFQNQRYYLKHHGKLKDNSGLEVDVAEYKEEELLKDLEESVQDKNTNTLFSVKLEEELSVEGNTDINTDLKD
# T2: Flag:PDZ (1–204 aa) of SATB1 (UniProt Q01826)
# T2 sequence: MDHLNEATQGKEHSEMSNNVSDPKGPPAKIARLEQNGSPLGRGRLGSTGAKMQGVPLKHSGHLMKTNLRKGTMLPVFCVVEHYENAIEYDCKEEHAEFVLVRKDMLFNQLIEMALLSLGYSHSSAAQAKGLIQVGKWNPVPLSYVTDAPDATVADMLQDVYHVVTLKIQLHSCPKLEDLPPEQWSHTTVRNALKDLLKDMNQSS
# T3: Flag:CD+HD (330–763 aa) of SATB1 (UniProt Q01826)
# T3 sequence: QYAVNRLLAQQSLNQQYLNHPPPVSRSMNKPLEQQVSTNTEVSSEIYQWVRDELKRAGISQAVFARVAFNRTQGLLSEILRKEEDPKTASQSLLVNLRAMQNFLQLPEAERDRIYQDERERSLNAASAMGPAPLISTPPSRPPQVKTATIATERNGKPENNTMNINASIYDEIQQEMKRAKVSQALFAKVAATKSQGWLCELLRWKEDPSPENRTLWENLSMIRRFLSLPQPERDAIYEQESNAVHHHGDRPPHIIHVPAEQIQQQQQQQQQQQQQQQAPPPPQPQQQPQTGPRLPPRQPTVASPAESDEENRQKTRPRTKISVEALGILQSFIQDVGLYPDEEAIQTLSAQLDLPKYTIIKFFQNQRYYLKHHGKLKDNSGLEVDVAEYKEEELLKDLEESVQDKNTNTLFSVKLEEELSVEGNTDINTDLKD
# T4: 6XHis-SATB1 (UniProt Q01826)
# T4 sequence: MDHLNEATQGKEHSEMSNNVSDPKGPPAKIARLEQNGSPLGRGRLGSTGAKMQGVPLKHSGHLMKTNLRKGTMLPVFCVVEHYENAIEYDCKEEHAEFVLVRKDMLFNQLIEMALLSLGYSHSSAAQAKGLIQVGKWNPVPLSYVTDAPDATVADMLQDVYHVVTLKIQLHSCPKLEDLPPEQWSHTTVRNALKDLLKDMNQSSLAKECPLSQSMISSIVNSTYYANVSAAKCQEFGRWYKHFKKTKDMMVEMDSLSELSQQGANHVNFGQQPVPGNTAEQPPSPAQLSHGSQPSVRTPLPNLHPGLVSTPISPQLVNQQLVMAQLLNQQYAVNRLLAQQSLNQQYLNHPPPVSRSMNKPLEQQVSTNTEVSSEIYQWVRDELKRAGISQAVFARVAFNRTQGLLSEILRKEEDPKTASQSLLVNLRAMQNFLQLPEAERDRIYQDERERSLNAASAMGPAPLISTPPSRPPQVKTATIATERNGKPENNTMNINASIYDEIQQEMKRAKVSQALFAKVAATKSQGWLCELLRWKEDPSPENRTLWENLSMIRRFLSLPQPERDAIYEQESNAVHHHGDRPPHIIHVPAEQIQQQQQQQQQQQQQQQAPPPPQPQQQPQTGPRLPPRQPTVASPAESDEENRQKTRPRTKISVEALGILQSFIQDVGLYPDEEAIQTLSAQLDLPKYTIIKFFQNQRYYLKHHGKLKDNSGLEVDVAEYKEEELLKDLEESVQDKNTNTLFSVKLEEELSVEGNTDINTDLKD
# Assays:
# [1] = biological target: T1, special AT-rich binding protein 1 (SATB1), endogenous (human (endogenous in Jurkat, human thymocytes, HEK 293T)); experiment: co-IP; extracts of LiCl-treated HEK 293T cells overexpressing RFP-fused β-catenin 1–576 or 577–780 or none; IP anti-SATB1, WB anti-β-catenin
# [2] = biological target: T2, Flag:PDZ (1–204 aa) of SATB1; experiment: co-IP; extracts of HEK 293T cells overexpressing 3XFlag-SATB1 and its domains; IP anti-Flag, WB anti-β-catenin
# [3] = biological target: T3, Flag:CD+HD (330–763 aa) of SATB1; experiment: as above
# [4] = biological target: T1, special AT-rich binding protein 1 (SATB1), endogenous (human (endogenous in Jurkat, human thymocytes, HEK 293T)); experiment: co-IP; Jurkat nuclear extract; IP with anti-β-catenin or anti-SATB1, WB with anti-SATB1 or anti-β-catenin; 1× PBS, 0.1% Triton X-100, 4°C
# [5] = biological target: T1, special AT-rich binding protein 1 (SATB1), endogenous (human (endogenous in Jurkat, human thymocytes, HEK 293T)); experiment: co-IP; LiCl treated extracts of HEK 293T cells transfected with Flag-TCF4 or empty Flag vector; IP anti-SATB1, WB anti-β-catenin
# [6] = biological target: T4, 6XHis-SATB1; experiment: pull-down; 100 µg SW480 nuclear extract passed on immobilised SATB1 (6XHis-SATB1 on Ni-NTA beads) and its GST-fused domains; WB anti-β-catenin; only the target purified
# [7] = biological target: T1, special AT-rich binding protein 1 (SATB1), endogenous (human (endogenous in Jurkat, human thymocytes, HEK 293T)); experiment: co-IP; HEK 293T cells overexpressing VP-16 fused regions of β-catenin; IP anti-SATB1, WB anti-β-catenin
# [8] = biological target: GST-β-catenin (UniProt P35222); experiment: pull-down; 35S-labeled in vitro translated SATB1 incubated 2–3 h with GST-β-catenin or GST on glutathione Sepharose beads; washed with 1× PBS, 0.1% triton X-100; eluted in SDS loading buffer; only the target purified
# [9] = biological target: GST-β-catenin (UniProt P35222); experiment: pull-down; in vitro competition: recombinant SATB1 domain incubated with GST-β-catenin on glutathione-Sepharose preloaded with TCF-4; read-out is loss of bound TCF-4; both purified
# [10] = biological target: GST-β-catenin (UniProt P35222); experiment: pull-down; 100 µg Jurkat nuclear extract passed on immobilised GST-β-catenin and its domains on glutathione Sepharose; WB anti-SATB1; only the target purified
# [11] = biological target: TCF-1, endogenous (human (endogenous in human thymocytes)) (UniProt P36402); experiment: co-IP; nuclear extracts of human thymocytes treated with LiCl for 24 h; IP anti-TCF-1, immunoblot anti-SATB1
# [12] = biological target: β-catenin, endogenous (human (endogenous in Jurkat, human thymocytes, HEK 293T, SW480)) (UniProt P35222); experiment: co-IP; Jurkat nuclear extract; IP with anti-β-catenin or anti-SATB1, WB with anti-SATB1 or anti-β-catenin; 1× PBS, 0.1% Triton X-100, 4°C
# [13] = biological target: β-catenin, endogenous (human (endogenous in Jurkat, human thymocytes, HEK 293T, SW480)) (UniProt P35222); experiment: co-IP; nuclear extracts of BIO treated and control human thymocytes; IP anti-β-catenin, WB anti-SATB1
# [14] = biological target: TCF-4, endogenous (human (endogenous in HEK 293T)) (UniProt Q9NQB0); experiment: co-IP; nuclear extracts of HEK 293T cells cultured with or without LiCl for 24 h; IP anti-TCF-4, immunoblot anti-SATB1
molecule,measurement,setting,value
RFP-fused C-terminus (577–780) of β-catenin (from UniProt P35222 577-780) (domain or fragment),binding,[1],binds
"β-catenin, endogenous (from UniProt P35222 1-781)",binding,[2],binds
same,binding,[3],no binding
same,binding,[4],binds
same,binding,[5],binds
same,binding,[6],binds
same,binding,[1],binds
RFP-fused ΔC-term (1–576) of β-catenin (from UniProt P35222 1-576) (domain or fragment),binding,[1],no binding
VP-16 fused C-terminal region (aa 666–780) of β-catenin (from UniProt P35222 666-780) (domain or fragment),binding,[7],binds
VP-16 fused N-terminal region (aa 1–137) of β-catenin (from UniProt P35222 1-137) (domain or fragment),binding,[7],no binding
"35S-labeled SATB1 (protein, UniProt Q01826 1-763, 35S-labeled) MDHLNEATQGKEHSEMSNNVSDPKGPPAKIARLEQNGSPLGRGRLGSTGAKMQGVPLKHSGHLMKTNLRKGTMLPVFCVVEHYENAIEYDCKEEHAEFVLVRKDMLFNQLIEMALLSLGYSHSSAAQAKGLIQVGKWNPVPLSYVTDAPDATVADMLQDVYHVVTLKIQLHSCPKLEDLPPEQWSHTTVRNALKDLLKDMNQSSLAKECPLSQSMISSIVNSTYYANVSAAKCQEFGRWYKHFKKTKDMMVEMDSLSELSQQGANHVNFGQQPVPGNTAEQPPSPAQLSHGSQPSVRTPLPNLHPGLVSTPISPQLVNQQLVMAQLLNQQYAVNRLLAQQSLNQQYLNHPPPVSRSMNKPLEQQVSTNTEVSSEIYQWVRDELKRAGISQAVFARVAFNRTQGLLSEILRKEEDPKTASQSLLVNLRAMQNFLQLPEAERDRIYQDERERSLNAASAMGPAPLISTPPSRPPQVKTATIATERNGKPENNTMNINASIYDEIQQEMKRAKVSQALFAKVAATKSQGWLCELLRWKEDPSPENRTLWENLSMIRRFLSLPQPERDAIYEQESNAVHHHGDRPPHIIHVPAEQIQQQQQQQQQQQQQQQAPPPPQPQQQPQTGPRLPPRQPTVASPAESDEENRQKTRPRTKISVEALGILQSFIQDVGLYPDEEAIQTLSAQLDLPKYTIIKFFQNQRYYLKHHGKLKDNSGLEVDVAEYKEEELLKDLEESVQDKNTNTLFSVKLEEELSVEGNTDINTDLKD",binding,[8],binds
"recombinant PDZ domain of SATB1 (domain or fragment, UniProt Q01826 1-204) MDHLNEATQGKEHSEMSNNVSDPKGPPAKIARLEQNGSPLGRGRLGSTGAKMQGVPLKHSGHLMKTNLRKGTMLPVFCVVEHYENAIEYDCKEEHAEFVLVRKDMLFNQLIEMALLSLGYSHSSAAQAKGLIQVGKWNPVPLSYVTDAPDATVADMLQDVYHVVTLKIQLHSCPKLEDLPPEQWSHTTVRNALKDLLKDMNQSS",binding,[9],binds
"special AT-rich binding protein 1 (SATB1), endogenous (protein, UniProt Q01826 1-763) MDHLNEATQGKEHSEMSNNVSDPKGPPAKIARLEQNGSPLGRGRLGSTGAKMQGVPLKHSGHLMKTNLRKGTMLPVFCVVEHYENAIEYDCKEEHAEFVLVRKDMLFNQLIEMALLSLGYSHSSAAQAKGLIQVGKWNPVPLSYVTDAPDATVADMLQDVYHVVTLKIQLHSCPKLEDLPPEQWSHTTVRNALKDLLKDMNQSSLAKECPLSQSMISSIVNSTYYANVSAAKCQEFGRWYKHFKKTKDMMVEMDSLSELSQQGANHVNFGQQPVPGNTAEQPPSPAQLSHGSQPSVRTPLPNLHPGLVSTPISPQLVNQQLVMAQLLNQQYAVNRLLAQQSLNQQYLNHPPPVSRSMNKPLEQQVSTNTEVSSEIYQWVRDELKRAGISQAVFARVAFNRTQGLLSEILRKEEDPKTASQSLLVNLRAMQNFLQLPEAERDRIYQDERERSLNAASAMGPAPLISTPPSRPPQVKTATIATERNGKPENNTMNINASIYDEIQQEMKRAKVSQALFAKVAATKSQGWLCELLRWKEDPSPENRTLWENLSMIRRFLSLPQPERDAIYEQESNAVHHHGDRPPHIIHVPAEQIQQQQQQQQQQQQQQQAPPPPQPQQQPQTGPRLPPRQPTVASPAESDEENRQKTRPRTKISVEALGILQSFIQDVGLYPDEEAIQTLSAQLDLPKYTIIKFFQNQRYYLKHHGKLKDNSGLEVDVAEYKEEELLKDLEESVQDKNTNTLFSVKLEEELSVEGNTDINTDLKD",binding,[10],binds
same,binding,[11],no binding
same,binding,[12],binds
same,binding,[13],binds
same,binding,[14],no binding
